Test results reported in the supplement of paper PMC7826260.
The other results are listed elsewhere or left out. The data describe in vitro nicking of single-stranded DNA by Rep domains (3 µM enzyme, 1 h, 37 °C); shown is the middle of each 90-letter strand. Values are log2 of uncut reads against the no-enzyme pool; strong cutting gives strongly negative numbers. There is no active / inactive call. Shares of all reads are compared, so uncut sequences can rise above 0 when many others are cut.

Key:
Assay in all cases: uncleaved DNA left, log2 of reads against the no-enzyme library (log2 ratio); higher = less cleavage (more negative = more Rep cleavage of the k-mer); sequences stand for … in CTCGTCCG…ACCGGAGA
[1] = test system: T1, Rep nickase domain of Muscovy duck circovirus
T1 sequence (protein, residues 1-111, tag omitted): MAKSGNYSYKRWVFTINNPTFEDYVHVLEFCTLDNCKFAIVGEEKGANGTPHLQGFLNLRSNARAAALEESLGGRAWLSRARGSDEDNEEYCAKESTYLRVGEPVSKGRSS
Method: (§1)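 A pool of 90-nt single-stranded DNAs with seven random bases just before the constant AC of the nick site (name = the seven bases) was cut by 3 µM recombinant His6-SUMO-tagged Rep nickase domain (300 nM DNA, 50 mM HEPES pH 8.0, 50 mM NaCl, 1 mM MnCl2, 1 h, 37 °C, three replicates). Uncut DNA was amplified and sequenced.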

[2] = test system: T2, Rep nickase domain of banana bunchy top virus
T2 sequence (protein, residues 1-94, tag omitted): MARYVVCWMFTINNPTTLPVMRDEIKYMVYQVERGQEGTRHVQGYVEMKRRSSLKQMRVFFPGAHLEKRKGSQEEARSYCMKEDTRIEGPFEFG
Method: as §1

[3] = test system: T3, Rep nickase domain of cabbage leaf curl virus
T3 sequence (protein, residues 1-116, tag omitted): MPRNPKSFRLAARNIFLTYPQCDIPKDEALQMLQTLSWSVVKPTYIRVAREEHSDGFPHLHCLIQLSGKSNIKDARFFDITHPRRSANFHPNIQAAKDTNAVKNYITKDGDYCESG
Method: as §1

[4] = test system: T4, Rep nickase domain of chickpea chlorotic dwarf virus
T4 sequence (protein, residues 1-124, tag omitted): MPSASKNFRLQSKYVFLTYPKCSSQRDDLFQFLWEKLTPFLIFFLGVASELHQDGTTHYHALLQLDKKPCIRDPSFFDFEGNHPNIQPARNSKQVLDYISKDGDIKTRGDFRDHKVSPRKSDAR
Method: as §1

[5] = test system: T5, Rep nickase domain of faba bean necrotic yellows virus
T5 sequence (protein, residues 1-98, tag omitted): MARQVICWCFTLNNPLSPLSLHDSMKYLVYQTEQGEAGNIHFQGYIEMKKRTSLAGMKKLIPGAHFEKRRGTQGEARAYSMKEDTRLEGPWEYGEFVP
Method: as §1

[6] = test system: T6, Rep nickase domain of maize striate mosaic virus
T6 sequence (protein, residues 1-117, tag omitted): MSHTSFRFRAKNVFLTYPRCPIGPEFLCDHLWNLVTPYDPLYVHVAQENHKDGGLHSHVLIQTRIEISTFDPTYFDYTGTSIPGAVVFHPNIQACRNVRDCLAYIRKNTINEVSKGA
Method: as §1

[7] = test system: T7, Rep nickase domain of porcine circovirus 2
T7 sequence (protein, residues 2-116, tag omitted): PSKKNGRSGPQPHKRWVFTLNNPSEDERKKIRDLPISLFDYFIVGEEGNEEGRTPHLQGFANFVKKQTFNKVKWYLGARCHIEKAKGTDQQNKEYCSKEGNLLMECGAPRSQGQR
Method: as §1

[8] = test system: T8, Rep nickase domain of tomato golden mosaic virus
T8 sequence (protein, residues 1-124, tag omitted): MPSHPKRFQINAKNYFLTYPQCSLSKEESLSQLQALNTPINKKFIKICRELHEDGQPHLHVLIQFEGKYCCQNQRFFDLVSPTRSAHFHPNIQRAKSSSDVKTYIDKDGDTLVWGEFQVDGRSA
Method: as §1

[9] = test system: T9, Rep nickase domain of tomato yellow leaf curl virus
T9 sequence (protein, residues 1-136, tag omitted): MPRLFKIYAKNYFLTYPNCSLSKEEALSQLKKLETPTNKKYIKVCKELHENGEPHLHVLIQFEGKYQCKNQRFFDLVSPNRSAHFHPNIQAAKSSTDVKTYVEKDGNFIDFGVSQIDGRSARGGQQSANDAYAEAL
Method: as §1

[10] = test system: T10, Rep nickase domain of wheat dwarf virus
T10 sequence (protein, residues 1-137, tag omitted): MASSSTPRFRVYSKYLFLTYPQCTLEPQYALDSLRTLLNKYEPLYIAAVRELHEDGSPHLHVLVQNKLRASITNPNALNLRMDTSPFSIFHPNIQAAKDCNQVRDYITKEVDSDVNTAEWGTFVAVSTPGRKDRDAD
Method: as §1

Sequence	uncleaved DNA left (log2) [1]	uncleaved DNA left (log2) [2]	uncleaved DNA left (log2) [3]	uncleaved DNA left (log2) [4]	uncleaved DNA left (log2) [5]	uncleaved DNA left (log2) [6]	uncleaved DNA left (log2) [7]	uncleaved DNA left (log2) [8]	uncleaved DNA left (log2) [9]	uncleaved DNA left (log2) [10]
GCCATTA	-0.0886	0.0386	0.023	-0.0221	-0.274	-0.303	0.0649	0.0534	0.108	-0.00725
TGCGAAG	0.123	-0.0103	-0.155	0.11	-0.126	-0.114	0.024	-0.0811	-0.105	-0.0967
TAGGTGC	-0.183	-0.198	-0.432	-0.654	-0.021	-1.07	-0.025	-0.215	0.00124	-0.227
ACCGGAG	-0.0971	-0.034	-0.23	0.43	-0.0477	0.0253	-0.0625	0.0465	0.0131	-0.15
GCAGGTA	0.0527	-0.0282	0.103	0.586	-0.0348	0.638	0.0321	0.0389	0.0543	-0.0222
TCGATGC	-0.0661	-0.0296	-0.328	-0.556	-0.0511	-1.17	0.079	-0.156	-0.00148	-0.0651
TCGGCAC	0.0314	0.127	0.0958	0.193	0.0138	-0.141	0.0458	0.0298	0.0444	-0.0125
GCTGGCG	0.00243	0.0672	-0.441	0.989	0.0782	0.284	0.176	0.0558	0.0524	-0.0628
GGGTATC	0.0432	0.0514	0.739	1.85	0.0341	2.12	0.104	-0.0402	0.128	0.106
CACATCG	0.00495	-0.0846	-0.837	0.393	0.119	-0.581	0.0949	-0.159	0.118	-0.0536
CACTAGG	0.0336	0.128	0.13	0.781	0.085	0.148	0.175	0.0123	-0.0289	0.161
ACGTAGA	-0.0531	0.111	-0.191	-0.0526	0.107	-0.772	0.138	0.0666	0.0247	0.0866
ATTGCGA	0.0691	0.0412	0.163	1.24	0.0661	1.29	0.0996	0.0556	0.0262	-0.0175
AAAATCC	-0.016	-0.022	-0.0211	-0.446	-0.0379	-0.608	0.0383	0.0014	-0.0854	-0.0236
GGCCTCT	-0.0735	-0.064	0.267	0.386	-0.0151	1.14	-0.0944	-0.131	-0.081	0.007
CGGACGA	-0.0393	0.0992	0.607	1.58	-0.0458	1.72	0.0447	-0.0788	0.00722	0.134
GCAGAGC	-0.0172	-0.055	-0.222	-0.0553	0.0294	-0.812	0.135	0.126	0.0683	-0.101
CCAGGCT	0.0144	0.00896	0.11	0.325	-0.0598	0.17	0.085	0.161	0.0353	0.053
CCAGTCA	0.0292	0.0138	0.0362	-1.04	0.038	-0.999	-0.138	-0.0405	0.00764	-0.0649
CAAATGA	0.038	0.078	0.00992	-0.0663	0.0608	-0.783	0.177	0.162	0.0245	0.06
CTAGGCG	-0.105	-0.144	-0.934	0.283	-0.0227	-0.772	0.059	-0.137	0.0379	-0.0813
ACATATC	0.0512	-0.0121	-0.171	-0.0619	0.15	-0.955	0.119	0.0509	-0.0073	0.0225
AGGCGCC	-0.000931	-0.0681	-0.0261	0.0754	0.0243	-0.154	0.137	0.0734	-0.0812	0.0432
GAAAGGT	0.169	0.125	0.26	0.656	-0.0526	1.46	0.0738	0.0415	0.0459	0.0995
CGCCTGA	-0.149	0.00341	-0.0523	0.461	0.093	1.42	-0.0729	-0.223	-0.166	-0.023
CAAGTCG	0.159	0.0806	-0.706	7.28e-05	0.0374	-1	0.279	0.0418	0.11	0.0165
ACTGACA	-0.0799	0.0401	-0.0168	0.37	-0.00476	0.502	-0.0577	-0.025	0.0321	0.152
TCAGTTA	0.0441	-0.0468	0.089	-0.401	-0.0818	-0.0146	-0.00105	0.0579	-0.0214	-0.0867
GTCGGTG	0.0405	0.0882	0.18	0.528	-0.0539	0.559	0.015	0.184	-0.0473	0.0368
GCATTCC	0.0671	0.055	0.625	1.35	0.0437	1.47	0.174	-0.0326	0.0584	0.19
